In PMC7385176, “Engineering a disulfide-gated switch in streptavidin enables reversible binding without sacrificing binding affinity” (Scientific Reports, 2020):

Target: the molecule itself
Assay: SDS-PAGE of heated samples (folded tetramers resolved from denatured monomers); 2% SDS, with 5 mM biotin, heated at 95 °C for up to 60 min, 12% SDS-PAGE, Coomassie; fraction still tetrameric relative to time zero

B1: streptavidin mutein M88 (N49C/A86C), oxidized, as used in the thermostability assay (natural protein)
chain: not shown
modifications: disulfide bond between Cys-49 and Cys-86 (previously oxidized)
notes: streptavidin, Streptomyces avidinii; numbers count on: the mature protein; also called oxidized M88; source: both purified
- stoichiometry N: 4
